Some of the results follow. At the low end of the ranking, values are background and their order means little. The protein was read in a cell extract, so binding may be indirect.

This assay addresses T1, HNF4alpha8 (COS-7 nuclear extract) (UniProt P41235-5).
T1 sequence: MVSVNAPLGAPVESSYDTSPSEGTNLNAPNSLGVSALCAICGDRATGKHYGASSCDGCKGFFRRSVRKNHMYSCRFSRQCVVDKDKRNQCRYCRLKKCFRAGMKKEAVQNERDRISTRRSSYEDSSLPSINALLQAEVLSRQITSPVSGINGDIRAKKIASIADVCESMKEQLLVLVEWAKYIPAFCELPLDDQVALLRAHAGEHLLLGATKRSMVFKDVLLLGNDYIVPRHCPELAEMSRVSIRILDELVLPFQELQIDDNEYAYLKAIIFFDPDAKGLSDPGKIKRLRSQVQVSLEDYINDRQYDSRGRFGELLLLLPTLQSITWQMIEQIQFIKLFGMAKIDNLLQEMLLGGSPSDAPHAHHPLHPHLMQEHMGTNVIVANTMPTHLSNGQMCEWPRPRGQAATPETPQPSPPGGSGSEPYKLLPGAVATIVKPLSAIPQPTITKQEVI
Put plainly: protein-binding microarray. The note with it: COS-7 nuclear extract on double-stranded Agilent 4x180k PBM; binding buffer, salt, pH and temperature not given; high values mean tight binding; double strand, one strand shown; sequences stand for … in …GCCTAGGGAGATTAGAGTATCGGTCGA
Regarding GCCTTATTATCTGCTTTTATGACCTTTGAC, the binding signal (log2 normalized intensity) stood at 8.05.
In the case of TGACTTGGGTGCACCAATGATCAAAGAGAC it was 0.159; in that of TTTTCGAATGGACAGGATGTTCTACACTGC, -0.47.
Turning to AGCAAAGGTTGGCTAAAGATAACCTAGAAA, the binding signal (log2 normalized intensity) was -1.4.
The result for GAGCTACCGCCTGAACCTTGGATCTCCTGC reads 2.94.
In the case of GTTTTGAAAGACCTTTTCCCTCCCTCCCAG it was 3.76; in that of CCCCGTTCCCGGCAGCCCGCGCGTGGCCCA, 2.04.
In the case of CCAGCTCCTCTTCACACCATGCTCTAGTCT it was -0.491; in that of GCCAGATGGCCACCCTTCAGCAAATAGTGG, -1.4.
As to AGTGTGCAAATGTGTCTTTTTTAGTCAGCA, the binding signal (log2 normalized intensity) amounted to 1.41.
In the case of ACCCAAATATGGTCCCTGACCTTAAGGAGT it was 2.69.
In the case of TGATGAGTCCAAGTTCCACATCAAGCACAT, the binding signal (log2 normalized intensity) is 1.35.
The result for TTATGTTCACCTCAGCACTGAGATAAAAAT reads -0.239; that for ATTGCAAGGATTCCAAATTTAGTGAGTGGT, 0.389; that for CATCTGCTCACATACCACTGACTAAAGCAA, -1.3.
Turning to ACTTATCAGGGTTATTTGCTAAAACTGGGC, the binding signal (log2 normalized intensity) came out at 0.724.
The result for CCCAGCAGGCAGACTGGCTCCGCTGCTGCA reads -1.33; that for TTAAAGGGCAGAAGAAGGGATTTAGATTAG, -1.34.
In the case of AGAGGAAGATCTTTTTGATGACTTTGTAGG it was 0.915; in that of AATGTAGCCGGCTCAAAATAGGCAAGACTG, -1.3; in that of AATCTTTCAGGAATCTCAGGAGTGATGCCA, -1.31.
In the case of ATTGCCATCTGCAAGAGAGAATAGATAGTG it was -1.22; in that of TGCGGTAGGCATTGAGGCAGCCAGCGCAGG, -1.31; in that of TCAAAGACTCAGATGAGTTTCTTCACTGAC, -1.07.
In the case of GAAATGGATTTTTTGGGTAAAGTCCAGGCA, the binding signal (log2 normalized intensity) amounted to 3.03.
In the case of GGAGTAGGCTTTAGATAAGGTATGTGGGAG it was -0.393; in that of ATCCTCAAGAAACACAGAACTATCAAACAT, -1.32.
For ACATAAATGTGCCCAGATAAGAACTGCAAG, the binding signal (log2 normalized intensity) is -1.43.
The result for AGATAAGGAGGAGACAGACTTATCGGGTAG reads -1.27; that for ACTTTCTTGTTTACTCACCTGATTCAATGT, 1.43.
In the case of CGCGCCGGGCACTGATAACGCCCGCCTAAC it was -1.21; in that of TTGGGCTAGCCGCTCCTCCCACGTCGCTGC, -1.14.
The result for TGAAAATACAAACAAATTGTGTGCAACAGG reads -0.714; that for GCCATTGTTCATACTGCAGCTCTGCGTCTT, -0.894.
Take CTGCAGGTCTCTAAATGGTAGGATTGTTTG: the binding signal (log2 normalized intensity) was found to be 0.912.
The result for AGGTAGAGGGACACTGATAACACTGATAAC reads -1.36; that for GACGACTTACTTTTATCAGGTAAAGATATG, 0.855.
In the case of GTTGCAACTTTGACTATAGCGTCTCCTGGC it was -1.38.
In the case of CTAACGTATGGACTTTCTGATGTCAGAAAA it was 1.79.
In the case of AGCTCTGAACTAACAATTCTTTCTGATAAG, the binding signal (log2 normalized intensity) was -0.922.
The result for ACAAGGAAAAATGACCATCTCGTCAAGGTG reads -1.4; that for ATTCCACCCTCATTTGCTTGACCCGGGTAC, 3.18.
The result for GGGCATGAAGTCAAAGGAGGCATTCCTGCA reads -1.25; that for AACTGTGTAATAAGGAGTTGTGTGATAAGG, 1.31; that for TTCAAAGGTAGGGCCTACCTGCCTGAGCTA, -1.45.
In the case of TGTTGGGGAACTTTGCCCGGATTCCAGCAA it was 2.22; in that of GTTTGCAAGCCCAAAGCCCCCAGAGGTTCT, 3.19.
For GGGCTGAGCCCACAGTCCAGTACCATTTCC, the binding signal (log2 normalized intensity) is -0.908.
The result for GCCCCAGTGATGACAGCAAGATAATGTCAA reads 1.44; that for AGGTTACAATTGTCCCCAAGATTGAGGCCA, 1.53; that for CCTCCTGTGGTAATAAGTTGGTGGACGCTG, 1.13.
For the sequence TAACAGACTGTAGGCTTGGAGCCTTGTAAA, the binding signal (log2 normalized intensity) is -1.26.
The result for CCATGGACCTGACACCCGCTGGCGCCATCC reads -1.33; that for GGAATGTCCTGGCAGGCTTCGAAAAATGGG, -1.29.
For GCAGGTGAACGACTTGACAAAGGTCATTCA, the binding signal (log2 normalized intensity) turned out to be 5.13.
The result for GGTCAAAGTGCGTCCTGTGGCAAAGGTGAA reads 3.03.
In the case of GTACTTTGGAACCTGAAAGAGCAACTACTC it was 3.35; in that of GAATCCCGGGAATCCTCAGCCTTCTCCGCG, -1.32; in that of CAAATATTTACTGAATGAATGTCCAACTTG, 0.916.
The result for TGAGGGTAAAGATCTTGAGGCCCACAAGGA reads -1.22; that for AACTCTTCATTATGGATAGGCACATATTGG, 1.3; that for GTGCTATCTCAGCTCACTGTAACCTTTGCC, 4.68.
Turning to TCTCCAAGTCAAACATTAGCCAGGATCAGA, the binding signal (log2 normalized intensity) is -1.39.
In the case of AGGCATTAGCAATGCGAGAGTACACAGAAG it was -1.28; in that of CGAGTTGTTCTCCGTCTATAAATACGCCTC, -1.19; in that of TCCTGCTAGTCACATCAAAACCTCCCAGCT, -1.22.
In the case of TGGGGGAAGGGCAGGGCCTGGGAGATAACC it was -1.21; in that of TGGGTTATGTTAGACCAGCCAATTCTACTG, -1.08; in that of AATAGTGACCTCTGCTGGCCAGTGGAAAAC, 1.37.
GGCATGGGAAGCAGTGAGGGTGGGTTCAAA: the binding signal (log2 normalized intensity) came out at 1.64.
In the case of GCATTCTGTTTCCTACTGACCTCCGACCCC it was 7.08; in that of CTATTAACTTTTCCATGTCCAAAGGTCTTC, 5.6; in that of ACCGCAAATAAAAGAGGGCCCCATCATGTG, -1.3.

Source of the values: paper PMC10726135.
